# According to PMC4336329 (PLoS ONE, 2015):
# The whole screen tested about 310,000 compounds, of which about 2,200 (0.71%) showed an effect of 50% or more. Effects have a minus sign here. The list shows a part of the results.
# Target: human ether-à-go-go-related gene (hERG) potassium channel (human, UniProt Q12809)
# Assay: primary screen, population patch clamp on CHO cells stably expressing hERG
# human ether-à-go-go-related gene (hERG) potassium channel, sequence (Q12809 whole entry, looked up): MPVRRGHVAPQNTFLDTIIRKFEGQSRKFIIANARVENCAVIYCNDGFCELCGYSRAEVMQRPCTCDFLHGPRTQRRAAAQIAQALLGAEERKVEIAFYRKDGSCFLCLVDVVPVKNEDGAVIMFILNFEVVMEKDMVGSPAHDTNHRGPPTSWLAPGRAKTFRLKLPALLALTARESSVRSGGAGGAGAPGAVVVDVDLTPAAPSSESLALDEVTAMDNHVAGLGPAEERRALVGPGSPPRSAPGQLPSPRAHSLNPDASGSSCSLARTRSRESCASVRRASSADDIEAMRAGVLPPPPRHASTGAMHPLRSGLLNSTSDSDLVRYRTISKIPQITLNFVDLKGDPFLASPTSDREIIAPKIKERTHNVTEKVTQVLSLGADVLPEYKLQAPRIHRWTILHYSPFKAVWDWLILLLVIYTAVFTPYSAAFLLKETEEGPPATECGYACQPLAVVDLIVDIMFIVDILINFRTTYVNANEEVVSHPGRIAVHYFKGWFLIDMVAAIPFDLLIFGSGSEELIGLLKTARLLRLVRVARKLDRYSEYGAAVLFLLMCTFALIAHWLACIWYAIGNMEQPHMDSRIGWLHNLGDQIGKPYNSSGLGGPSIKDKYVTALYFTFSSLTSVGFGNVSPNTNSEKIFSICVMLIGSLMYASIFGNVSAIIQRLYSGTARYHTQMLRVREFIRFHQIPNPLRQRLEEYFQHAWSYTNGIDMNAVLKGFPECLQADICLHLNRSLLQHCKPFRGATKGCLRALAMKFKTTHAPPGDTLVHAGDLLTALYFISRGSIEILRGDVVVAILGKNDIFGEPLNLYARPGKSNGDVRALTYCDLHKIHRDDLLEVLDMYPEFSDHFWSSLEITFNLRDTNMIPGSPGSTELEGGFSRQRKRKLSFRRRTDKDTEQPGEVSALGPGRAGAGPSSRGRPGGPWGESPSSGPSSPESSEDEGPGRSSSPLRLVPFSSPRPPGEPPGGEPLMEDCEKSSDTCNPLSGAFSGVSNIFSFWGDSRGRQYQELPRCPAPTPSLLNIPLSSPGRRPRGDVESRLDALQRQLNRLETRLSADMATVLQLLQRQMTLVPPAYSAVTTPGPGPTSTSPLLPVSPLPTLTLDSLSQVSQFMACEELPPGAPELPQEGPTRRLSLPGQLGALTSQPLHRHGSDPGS
row,Structure (SMILES),"hERG current change (%, negative = inhibition) at 1uM [%]"
1,COc1ccc(-c2nc3ccccc3c(C(=O)Nc3ccc(S(=O)(=O)Nc4cc(C)on4)cc3)c2C)cc1,-4.11
2,O=C(CSc1nnc(-c2ccccc2Br)o1)N1CCOCC1,15.1
3,CC(=O)Nc1ccc(OCC(O)Cn2c3ccccc3c3ccccc32)c(C)c1 (stereo not shown),13.3
4,O=C(O)c1cc([N+](=O)[O-])ccc1NCc1ccccn1,17
5,CC1(C(=O)O)CCC(C(=O)Nc2ccc(OC(F)(F)Cl)cc2)C1(C)C (stereo not shown),17.7
6,CCCN1C[C@H](CSC)C[C@@H]2c3cccc4[nH]cc(c34)C[C@H]21.CS(=O)(=O)O,-7.58
7,CCn1c(SCC(N)=O)nnc1-c1ccco1,7.9
8,Cc1nc(-c2ccc(S(=O)(=O)NCc3ccccn3)s2)cs1,8.08
9,CCCCCn1c(SCc2ccncc2)nc2cc(C(=O)NCc3ccco3)ccc2c1=O,-6.94
10,CN1C(=O)NC(=O)/C(=C\c2ccc([N+](=O)[O-])o2)C1=O,11.3
11,CSc1ccccc1OCc1cc(C(=O)N2CCN(Cc3nccn3C)CC2)no1,-8.58
12,CC(=O)NC(=S)Nc1ccc(S(=O)(=O)Nc2nc(C)cc(C)n2)cc1,18.6
13,CCCc1nc2ccccc2c(=O)n1-c1ccccc1OC,1.56
14,Cc1ccccc1N1C(S)=C(C#N)C(=O)NC1c1ccco1 (stereo not shown),-1
15,CCOc1ccc(S(=O)(=O)N2CCC(C(=O)NCC3CCCO3)CC2)cc1Cl (stereo not shown),11.9
16,CCc1ccc(CN(C)C(=O)C2CCC(=O)N(Cc3ccccn3)C2)cc1 (stereo not shown),3.02
17,CC1(C)CC2CC(C)(CN2C(=O)COC(=O)c2cncc(Br)c2)C1 (stereo not shown),-0.246
18,O=S(=O)(Nc1ccc(OC(F)F)cc1)c1ccc(-c2ccon2)s1,10.4
19,O=C(N1CCN(Cc2ccc3c(c2)OCO3)CC1)C(Cl)(Cl)Cl,8.58
20,CCCCC(CC)C(=O)Nc1ccccc1C#N (stereo not shown),6.71
21,O=S(=O)(NCCC1=CCCCC1)c1ccc(F)cc1,9.44
22,O=C(Nc1ccccc1N1CCOCC1)c1csc2c1CCCC2,9.91
23,O=C(COC(=O)c1ccccc1Cl)Nc1ccc2[nH]c(=O)[nH]c2c1,6.39
24,CCOC(=O)C1(CCOC)CCN(Cc2ccccc2-c2ccco2)CC1,1.38
25,CSCCC1NC(=O)NC1=O (stereo not shown),1.76
